Measurements published in the supplement of paper PMC9446081.
In all, about 39,000 compounds went through this assay and about 220 (0.56%) showed activity. This is one part of the list.

Each molecule was assayed on Escherichia coli K-12 BW25113 (assay: relative growth (OD600 normalised to plate interquartile mean) (fraction); higher = less growth inhibition, active = 0.2 or less). Conditions: 50 µM; LB; incubation time: overnight (16-24 h).
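Note: static incubation at 37 °C against the wild-type strain, values averaged over two biological replicates.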

SMILES	relative growth
O=c1oc2c(O)c(O)cc3c(=O)oc4c(O)c(O)cc1c4c23	inactive: 0.84
C[C@H](CO)N1C[C@H](C)[C@H](CN(C)Cc2ccc3c(c2)OCO3)OCCCC[C@H](C)Oc2ccc(NC(=O)Nc3cccc4ccccc34)cc2C1=O	inactive: 1.03
COc1ccc(NC(=O)Nc2ccc3c(c2)C(=O)N([C@H](C)CO)C[C@H](C)[C@@H](CN(C)C(=O)Cc2ccccc2)OCCCC[C@@H](C)O3)cc1	inactive: 0.994
C[C@H](CO)N1C[C@H](C)[C@@H](CN(C)Cc2ccc(Cl)c(Cl)c2)Oc2ccc(NC(=O)CCCCCC(=O)Nc3ccccc3N)cc2CC1=O	inactive: 0.995
C[C@@H]1CN([C@@H](C)CO)C(=O)c2cc(NC(=O)NC3CCCCC3)ccc2O[C@@H](C)CCCCO[C@@H]1CN(C)C(=O)Nc1ccccc1	inactive: 1
COc1ccc(CN(C)C[C@@H]2OCCCC[C@@H](C)Oc3ccc(NC(=O)Nc4c(C)noc4C)cc3C(=O)N([C@@H](C)CO)C[C@@H]2C)cc1	inactive: 0.97
CC(C)NC(=O)N(C)C[C@H]1OCCCC[C@H](C)Oc2ccc(NC(=O)C3CCCCC3)cc2C(=O)N([C@@H](C)CO)C[C@H]1C	inactive: 1.01
C[C@H]1CN([C@@H](C)CO)C(=O)c2cc(NC(=O)Nc3ccccc3)ccc2O[C@H]1CN(C)Cc1ccc(C(=O)Nc2ccccc2N)cc1	inactive: 0.99
Cc1ccc(S[C@]2(C(=O)NC(C)C)CC(=O)N(Cc3ccccc3C(F)(F)F)[C@@H]2c2ccc(CO)cc2I)cc1	inactive: 0.992
Cc1noc(C)c1NC(=O)N(C)C[C@@H]1OCCCC[C@@H](C)Oc2ccc(NC(=O)Cc3ccccc3)cc2C(=O)N([C@H](C)CO)C[C@H]1C	inactive: 0.991
C#CC1(O)CCC2C3CCc4cc(OC)ccc4C3CCC21C (stereo not drawn)	inactive: 0.887
C[C@H]1CCCCO[C@@H](CN(C)C(=O)Cc2ccccc2)[C@@H](C)CN([C@@H](C)CO)C(=O)c2cc(NS(=O)(=O)c3ccc(F)cc3)ccc2O1	inactive: 0.988
Cc1ccc(S(=O)(=O)N(C)C[C@@H]2Oc3ccc(NC(=O)CCCN(C)C)cc3C(=O)N([C@H](C)CO)C[C@H]2C)cc1	inactive: 1.01
COc1ccc(CN(C)C[C@@H]2Oc3ccc(NC(=O)CCN4CCOCC4)cc3CC(=O)N([C@H](C)CO)C[C@H]2C)cc1	inactive: 1.01
CO[C@H]1CN(C)C(=O)c2ccc(NC(=O)Nc3ccccc3F)cc2OC[C@@H](C)N(Cc2ccccc2C(=O)O)C[C@@H]1C	inactive: 1.02
COc1ccc(CN(C)C[C@@H]2OCCCC[C@@H](C)Oc3ccc(NS(=O)(=O)c4ccc(OC)cc4)cc3C(=O)N([C@H](C)CO)C[C@@H]2C)cc1	inactive: 1.01
C[C@@H]1CN([C@@H](C)CO)C(=O)c2cc(NC(=O)Nc3ccc(C(F)(F)F)cc3)ccc2O[C@@H](C)CCCCO[C@H]1CN(C)C(=O)C1CCCCC1	inactive: 1.02
CCn1ccnc1CO	inactive: 0.986
N=C(N)Nc1nc(=O)c2ccccc2[nH]1	inactive: 0.99
COc1ccc(NC(=O)N(C)C[C@@H]2Oc3ccc(NS(C)(=O)=O)cc3C(=O)N([C@@H](C)CO)C[C@H]2C)cc1	inactive: 0.99
CC(C)NC(=O)Nc1ccc2c(c1)C(=O)N([C@H](C)CO)C[C@H](C)[C@H](CN(C)C(=O)Nc1ccc3c(c1)OCO3)O2	inactive: 0.996

SMILES	relative growth
C[C@@H]1CN([C@H](C)CO)C(=O)c2cccc(NC(=O)c3ccc(-c4nccs4)cc3)c2O[C@H]1CN(C)Cc1ccc2c(c1)OCO2	inactive: 1.03
C[C@@H]1CN([C@@H](C)CO)S(=O)(=O)c2ccc(-c3ccc(C(=O)N(C)C)cc3)cc2O[C@@H]1CN(C)C(=O)C1CC1	inactive: 0.998
C[C@H]1CN([C@@H](C)CO)C(=O)c2cccc(NS(=O)(=O)c3ccc(F)cc3)c2O[C@H]1CN(C)S(=O)(=O)c1ccccc1	inactive: 0.999
C[C@@H]1CN([C@H](C)CO)C(=O)CCCn2nncc2CO[C@H]1CN(C)S(=O)(=O)c1ccc(Cl)cc1	inactive: 1.03
COc1ccc(S(=O)(=O)N(C)C[C@H]2OCCCC[C@H](C)Oc3ccc(NC(=O)Nc4ccc(C(F)(F)F)cc4)cc3C(=O)N([C@H](C)CO)C[C@H]2C)cc1	inactive: 1.02
CSC(=N)NCCC[C@H](N)C(=O)O	inactive: 0.998
Cc1ccc(S(=O)(=O)Nc2ccc3c(c2)C(=O)N([C@@H](C)CO)C[C@H](C)[C@@H](CN(C)S(C)(=O)=O)O3)cc1	inactive: 0.982
Cc1noc(C)c1S(=O)(=O)Nc1cccc2c1O[C@@H](CN(C)Cc1ccc3c(c1)OCO3)[C@@H](C)CN([C@@H](C)CO)C2=O	inactive: 1.01
Cc1noc(C)c1NC(=O)Nc1ccc2c(c1)CC(=O)N([C@@H](C)CO)C[C@@H](C)[C@H](CN(C)C(=O)Nc1cccc3ccccc13)O2	inactive: 0.992
O=C1C(=O)N(C[C@@H](O)COc2cccc3ccccc23)C(=O)C(=O)N1C[C@@H](O)COc1cccc2ccccc12	inactive: 1.01
C[C@@H]1CCCCO[C@@H](CN(C)Cc2ccccc2)[C@@H](C)CN([C@H](C)CO)C(=O)c2cc(NC(=O)Nc3ccc(C(F)(F)F)cc3)ccc2O1	inactive: 1.01
CN[C@H]1CC[C@@H](c2ccc(Cl)c(Cl)c2)c2ccccc21	inactive: 0.868
Cc1nc(-c2cccc(F)c2)cs1	inactive: 0.985
COc1ccc(NC(=O)N(C)C[C@@H]2Oc3ncc(Br)cc3C(=O)N([C@H](C)CO)C[C@@H]2C)cc1	inactive: 0.983
COc1ccc(S(=O)(=O)N(C)C[C@@H]2Oc3ccc(NC(=O)NC(C)C)cc3CC(=O)N([C@H](C)CO)C[C@H]2C)cc1	inactive: 1
Cc1ccc(S(=O)(=O)N(C)C[C@@H]2Oc3ccc(NC(=O)Cn4cnnn4)cc3C(=O)N([C@H](C)CO)C[C@@H]2C)cc1	inactive: 1
C[C@H](CO)N1C[C@H](C)[C@H](CN(C)S(=O)(=O)c2cn(C)cn2)Oc2ccc(NC(=O)C3CCCCC3)cc2C1=O	inactive: 1.01
Cc1coc(C)c1C(=O)O[C@@H]1O[C@@H](C)[C@H](O)[C@@H](O)[C@H]1O	inactive: 0.971
COc1ccc(-c2coc3cc(OC(C)=O)cc(OC(C)=O)c3c2=O)cc1	inactive: 0.93
C/C=C/c1ccc(OC)cc1	inactive: 0.98
C=CC[C@@H](CC(=O)N[C@@H](CO)Cc1ccccc1)C(=O)N[C@@H](C)COC(=O)[C@H](CC=C)CC(=O)OC(C)(C)C	inactive: 0.994

SMILES	relative growth
CCC(=O)Nc1cccc([C@@H](CCc2ccc(OC)c(OC)c2)OC(=O)[C@@H]2CCCCN2C(=O)C(=O)C(C)(C)CC)c1	inactive: 1.03
C[C@@H]1CN([C@@H](C)CO)S(=O)(=O)c2ccc(C#Cc3ccc(F)cc3)cc2O[C@H]1CN(C)S(=O)(=O)c1cn(C)cn1	inactive: 1.02
C[C@H](CO)N1C[C@H](C)[C@@H](CN(C)S(=O)(=O)c2ccc(F)cc2)OCCCC[C@H](C)Oc2ccc(NC(=O)Nc3ccc4c(c3)OCO4)cc2C1=O	inactive: 1
COc1ccc(NC(=O)N(C)C[C@H]2OCCCC[C@@H](C)Oc3ccc(NC(=O)NC4CCCCC4)cc3C(=O)N([C@@H](C)CO)C[C@H]2C)cc1	inactive: 0.988
CC(C)NC(=O)Nc1cccc2c1O[C@@H](CN(C)S(=O)(=O)c1cn(C)cn1)[C@H](C)CN([C@H](C)CO)C2=O	inactive: 1.01
CC(=O)N(C)C[C@H]1Oc2ncc(C#CC(C)(C)O)cc2C(=O)N([C@@H](C)CO)C[C@H]1C	inactive: 1.02
CC(C)[C@@H](CO)N1C(=O)[C@@H]2[C@H]3C(=O)OCCC/C=C\[C@H]3O[C@]23C=CCN(c2ccc4ccccc4c2)C(=O)[C@@H]13	inactive: 1.02
C[C@H]1CN([C@@H](C)CO)C(=O)Cc2cc(NC(=O)CCN3CCOCC3)ccc2O[C@H]1CN(C)S(=O)(=O)c1cccs1	inactive: 0.99
N=C(N)c1ccc(OCCCCCOc2ccc(C(=N)N)cc2)cc1.O=S(=O)(O)CCO.O=S(=O)(O)CCO	inactive: 0.897
COc1ccc(-c2cnc3c(c2)C(=O)N([C@@H](C)CO)C[C@H](C)[C@@H](CN(C)C(=O)C2CCOCC2)O3)cc1	inactive: 0.981
C[C@H]1CN([C@@H](C)CO)C(=O)c2c(c3ccccc3n2C)-c2ccccc2CO[C@@H]1CN(C)Cc1ccc(Oc2ccccc2)cc1	inactive: 0.999
CCCCC(=O)C1CCC(c2ccc(Cl)cc2)CC1 (stereo not drawn)	inactive: 1.02
C[C@H]1CN([C@@H](C)CO)C(=O)CCCn2nncc2CO[C@@H]1CN(C)C(=O)CCCN(C)C	inactive: 0.998
C[C@@H]1CN([C@H](C)CO)C(=O)c2cccc(NC(=O)Nc3ccccc3)c2O[C@H]1CN(C)C(=O)Nc1cccc2ccccc12	inactive: 1.01
c1cnc2c(c1)OCCN2	inactive: 1.02
C[C@@H]1CN([C@H](C)CO)C(=O)c2cccc(NC(=O)c3cnccn3)c2O[C@H]1CN(C)C(=O)Nc1ccccc1	inactive: 0.999
COc1ccccc1S(=O)(=O)N(C)C[C@@H]1OCc2cnnn2CCCC(=O)N([C@@H](C)CO)C[C@@H]1C	inactive: 0.995
CCN[C@H]1CCS(=O)(=O)C1	inactive: 1.01
C[C@H](CO)N1C[C@H](C)[C@H](CN(C)CC2CCCCC2)Oc2ccc(NC(=O)Nc3ccc(F)cc3)cc2C1=O	inactive: 0.976
O=S1(=O)COC[C@@H](c2ccccc2)N1	inactive: 1.01
C[C@@H]1CN([C@H](C)CO)C(=O)Cc2cc(NS(=O)(=O)c3ccc(F)cc3)ccc2O[C@@H]1CN(C)Cc1ccc(Cl)c(Cl)c1	inactive: 0.999
